# Results: the RNAGym collection of RNA variant scans (doi:10.1093/nar/gkz1192)
# The source gives no read counts; variants with many changes may rest on few reads.
# B1: CPEB3 Ribozyme (parent)
# chain: UAACAGGGGGCCACAGCAGAAGCGUUCACGUCGCAGCCCCUGUCAGAUUCUGGUGAAUCUGCGAAUUCUGCUGUAUAUCUC
# Variants of: B1
# Assay: self-cleavage, relative activity (ratio to wild type); higher = more cleavage; in vitro, sequencing
# Method in brief: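 For each CPEB3 ribozyme variant, relative activity is its cleaved/total read fraction divided by the unmutated ribozyme's. Barcoded error-prone PCR libraries were transcribed by T7 RNA polymerase (5 hours, 37°C) and held in DNase I for 15 min before an EDTA stop, with cleavage occurring throughout. Template-switching reverse transcription and Illumina sequencing were used to read the RNAs. A 5-read minimum applied, and results are the mean of three batches.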
row,Variant,self-cleavage
1,A15U A18U A65G U66C,0.16
2,A15U A35G A65G,1.05
3,A15U C17U A35G U67C,0.1
4,A15G U58G U66C U72C,0.06
5,A15U A18G U26C A28G A45U U72C,0.08
6,A15U A18G U25A U48C A64G U69C,0.04
7,A15U A18U C38U G53A,0.1
8,A15U C17U A77G,0.25
9,A15U A21G C27A G33A A56G A57G,0.06
10,A15U A18G A45C A47G A64G U80C,0.04
11,A15U A21G G42A A64U,0.07
12,A15U A20G A77G,0.29
13,A15U A20G U41C,0.43
14,A15U A35G U48C A57G U69C U72C,0.9
15,A15U A18G U58C U69A,0.03
16,A15U A56G A57U,0.14
17,A15U A56G A57G,0.43
18,A15U A21G A35G U58C,0.67
19,A15U A18G A35U U54C G61C U72C,0.07
20,A15U A28G U66A,0.21
21,A15U A18G A28G,0
22,A15U A35U A56G U76A,0.58
23,A15U A21C C40A C50U,0.12
24,A15U A56U A64G U74C U76C,0.3

row,Variant,self-cleavage
1,A15U A21U U48C A56G U76C,0.06
2,A15U A18U U26G A45U C50U A56U,0.15
3,A15G U69C U74C,0.3
4,A15U A18G U25A C32U U48C A56G U60C,0.05
5,A15U A28G U31A U51C C81A,0.11
6,A15G U69A G70A,0.18
7,A15G U60C A65G,0.23
8,A15U A20G A21G U48C U72C,0.09
9,A15U A20G G42A A45G,0.27
10,A15U C23U U48A U69G,0.17
11,A15U A45G G55A U60C,0.5
12,A15U A20G C38U A77C,0.06
13,A15G U60A A65C U78C,0.21
14,A15U A35U U51A,0.93
15,A15U A28G U31C U41A U51A A57U,0.13
16,A15U C27U U41C U43C U49A U54C G73C,0.13
17,A15U A35U U49C A64U U72A U80A,0.1
18,A15U A45U G46A,0.08
19,A15U A28U U54A C79A,0.95
20,A15U C29U G52A A57G U69C,0.1
21,A15G U60A U76A,0.13
22,A15U A20G U26C A35G,0.58
23,A15U A20G U48C U69A,0.1
24,A15U A35G U54C A64G U80A,1.25

row,Variant,self-cleavage
1,A15U A21G U43C A47G,0.16
2,A15U A35G U43C A45U,0.94
3,A15U A35G U43C A45G,1.24
4,A15U A18G U41A U54A A57G U78A,0.28
5,A15U C23G A35G U41A U49C U67A,0.29
6,A15U A28C C39A U51C U74C A75G,0.08
7,A15U A28U A35U,0.57
8,A15U A21G U25C U43C A47C A56U U69C,0
9,A15U A18U U51C A64G,0.15
10,A15U A21G A28U G63A,0.09
11,A15G U69C U72C A77U,0.95
12,A15U A28G U43A U54C,0.45
13,A15U A21G U25C U72C,0.08
14,A15U A56G U67C U69A,0.11
15,A15U A64C A65G U67C,0.12
16,A15U A47G A77G,0.86
17,A15U A28G U41C U69C,0.43
18,A15U A35G A57G,1.26
19,A15U A21G C62A,0.2
20,A15U A47G U69C,0.23
21,A15U A20G A21G A28G U31A A45U U49C,0.28
22,A15U A35U C38U U41A,0.08
23,A15U A21G U41A U54A,0.26
24,A15U A18U A20C U51C U74C U78C,0.17

row,Variant,self-cleavage
1,A15U A20G A21G U49C,0.28
2,A15U A18C U69C,0.19
3,A15U C23U A35G,0.87
4,A15U A20G A35U U58C U60A U74G,0.13
5,A15U A64G U69C,0.35
6,A15U A65U U74A,0.14
7,A15U A28C A35G U72C U78C,0.49
8,A15U A21G A47G U66C,0.95
9,A15U A20U U54C U58A U74C U78C,0.09
10,A15U A18G C40U,0.32
11,A15U A20G U26C U41A U54A U66C U78C,0.06
12,A15U A21G U80A,0.45
13,A15U A56G C81U,0.96
14,A15U A28G C32A U43A A47U G73A,0.1
15,A15U A20U A56G U80C,0.07
16,A15U A18U A28U U41C A64G A75G,0.05
17,A15U A35C A45G U48C U54A C68A,0.07
18,A15U A21G G33A A35G C38A U69A,0.13
19,A15U A64G A77U,0.54
20,A15U A28G C50G U54C,0.17
21,A15U A20G A45C A64U U78C,0.06
22,A15U A18G C39U,0.39
23,A15U A47G U58C A65G,0.12
24,A15U A21U C44A C59G U60C,0.14

row,Variant,self-cleavage
1,A15G U60C U72G,0.18
2,A15U A45U A47G,0.49
3,A15G U60C A75G,0.26
4,A15U A18G U26C U51C A64G U76C,0.02
5,A15U A45C A57G U74C,0.09
6,A15U A28G U43C A45U A77U,0.07
7,A15U A47G U67A,0.13
8,A15U A28U U41C,0.31
9,A15U A20G U26C U43A A47G A56G U67C,0.06
10,A15U A20G U54C,0.17
11,A15U A56G A64U,0.21
12,A15U A18U U41C A65U,0.14
13,A15U A45G A64U U69A,0.14
14,A15G U60C A77U,0.22
15,A15U A28G G46A U49G A64U,0.1
16,A15U A20G A45G A64G,0.2
17,A15U A20G U43C A57U,0.49
18,A15U C27A U41C U67C,0.2
19,A15U A18U A20C,0.18
20,A15U A21G G33A A35G U69A,0.32
21,A15U A18G U31C U48A U78C U80A,0.06
22,A15U A47G U66C,0.11
23,A15U A45U U48C,0.5
24,A15U A20U C23U A35G G42A,0.07

row,Variant,self-cleavage
1,A15U A21U A65U,0.11
2,A15U C23G C39U U72A,0.13
3,A15U A20G A47U U54C,0.23
4,A15U A18G U25C U49C G63U A77G,0.15
5,A15U A18C U43C,0.21
6,A15U A20U U43C U54A U66C U67C U74C,0
7,A15G U74G A75U U76A,0.87
8,A15U A20G U25C A35C A47G,0.33
9,A15U A21G U43C U54C U58C U69G,0.26
10,A15U A18U A56U A57G G73A,0.1
11,A15U A20G U25C A28C A47G U48C U80C,0
12,A15U A21G U49C U74A,0.15
13,A15U A35U U43C U51C A57C,0.1
14,A15U C23A G30A C50A U51C G63U U80C,0.14
15,A15U A18G U60A U67C A77G,0.16
16,A15U A57G U67C,0.12
17,A15U A18U A47C,0.16
18,A15U A45G U49A A75C,0.28
19,A15U C29A G63A C81U,0.14
20,A15U A64G C79A,0.98
21,A15U A45G U49A,0.16
22,A15U A45G U51C U69C U72C,0.27
23,A15U A20G U54C A64G,0.22
24,A15U A45G U51A U67C A75U,0.22

row,Variant,self-cleavage
1,A15U A20G A35U,0.52
2,A15U A28U A65G A77G,0.12
3,A15U A28G G36A U41A,0.16
4,A15U A18G U41C A57G U72C,0.59
5,A15U C34G G42A A56U,0.06
6,A15U A18U U48C C71A U74A A75U,0.08
7,A15U A20G U41C A64G,0.48
8,A15U A21U U26A A65G,0.13
9,A15U A18C U25C C29A A35G A64U U78A,0.04
10,A15U A20G A35G U48C G52C A56U U69C,0.18
11,A15G U66C U76C,0.37
12,A15U A20G U49C A56G U72C U80C,0.12
13,A15G U60A U67G A77G U80C,0.14
14,A15U A18U U60C U78C U80C,0.12
15,A15U C23U A35G C62A,0.1
16,A15U C32U U41A U80C,0.21
17,A15U A28G U31A U69C,0.04
18,A15U C29G U43C A56U U78C,0.12
19,A15U A18G C29G A75U,0.07
20,A15U A47U A77U,0.28
21,A15U A20G U26C U41A G61C,0.28
22,A15U A28G A45G C81U,0.07
23,A15U A28U C29U U49C U51A A56G,0.12
